Reference: the supplement of paper PMC11417369
± gives the standard deviation of the averaged measurements. The list shows a part of the results.

The sequences below were run on PfAP2-G AP2 domain (GST-tagged) (assay: gcPBM binding intensity (ln(normalized median fluorescence intensity)); higher = stronger DNA binding).
Method in brief: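 An Agilent 4 × 180k array of primer-extended double-stranded 36-bp intergenic genomic probes, with negative controls, was incubated for 1 h with GST-tagged P. falciparum DNA-binding domains expressed in E. coli. Alexa488 anti-GST antibody detected bound protein, scanned at 488 nm. Binding intensity is the highest Masliner-normalised natural-log median intensity across replicate spots of either probe orientation.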

Going from “TTTGAAATATATTTAGTGCATATATATTGATTATAA [GTGCAC_site9604]” to “ATGAATATAATGAAGTGTACATAAAAATAATAAATA [XGTACX_site2481]”, the “gcPBM binding intensity (ln)” value rises from 10 ± 0.38 to 11.5 ± 0.65.

“AAATAGAGAAATACAAGTACATATCAAACCAATCTA [XGTACX_site2756]” and “TTTATTTATTAATACACACACACACGCCCACAAAAT [CACACA_site6253]” are within error of each other in “gcPBM binding intensity (ln)” value: 11.1 ± 0.66 for the first, 11.2 ± 0.8 for the second.

Compared with “AGGGACATATATATCACACACAAAAATTAGTCCCTT [CACACA_site2778]”, “TAAATATTTATAAACACACAAATATTTATATTTATA [CACACA_site6166]” is lower in “gcPBM binding intensity (ln)” value: 10.2 ± 0.049 for the first, 9.675 ± 0.092 for the second.

Going from “GATTTTAAAATAATTACACACTTGATTATGTCCAAA [CACACA_site3491]” to “ATAAATATAAATATATGTACATATATATATATATAT [XGTACX_site7433]”, the “gcPBM binding intensity (ln)” value rises from 10.3 ± 0.28 to 11.2 ± 0.61.

First: TAAAAATATAGGTATACACACATATAAATATAAATA [CACACA_site7785]
Second: CTTATACATAAATTTTGTACACACAAAAAAAAAAAA [XGTACX_site2665]
The “gcPBM binding intensity (ln)” value of the first is lower: 9.995 ± 0.021 for the first, 11.2 ± 1.1 for the second.

First: AAAAAAATATATATTACACACATATATACATATATA [CACACA_site3125]
Second: ATATTTTGTATAATCACACACACTATTATTAAATAG [CACACA_site2612]
The “gcPBM binding intensity (ln)” value of the first is lower: 9.865 ± 0.035 for the first, 10.125 ± 0.007 for the second.

First: TTACATTTTTTATGTTTTTTTATATTGCAAAAAAAT [CACACA_negctrl_site1050]
Second: ATATATATATATATATGTACTTATTAAGATTAAAAA [XGTACX_site61]
The “gcPBM binding intensity (ln)” value of the first is lower: 10 ± 0.15 for the first, 11.2 ± 0.73 for the second.

“TCAAATTATATGAGTGGTACACATGTAATATTTTTA [XGTACX_site6518]” and “AAAAAACGACCTTACGCACACATTATTCTAGTCTAT [CACACA_site2349]” are within error of each other in “gcPBM binding intensity (ln)” value: 11.4 ± 0.93 for the first, 10.48 ± 0.028 for the second.

“TTAAATATAAAAAGTAGTACATTTATATTTACCATA [XGTACX_site2962]” and “TGTGTTAATAGAAAAAGTACATATACATATATATAT [XGTACX_site4951]” are within error of each other in “gcPBM binding intensity (ln)” value: 11.5 ± 0.95 for the first, 11.2 ± 0.79 for the second.

Compared with “TGCACAGACGGACACACACACAACTAAAAAATAATG [CACACA_site5424]”, “TATAATAATGCCTTTACATGCAATAATAAAGAAATA [TGCATGCA_site631]” is lower in “gcPBM binding intensity (ln)” value: 11.5 ± 0.95 for the first, 9.96 ± 0.47 for the second.

First: AATGAATTAATAGCTACACACGGTAACATAATAACT [CACACA_site851]
Second: TCTTTTGAACAAATTTGTACGTATATAAAAATATTT [XGTACX_site6547]
The “gcPBM binding intensity (ln)” value of the first is lower: 10.015 ± 0.007 for the first, 11.4 ± 0.71 for the second.

“AAAAAAAAAAAAAAAACACACATACACCCCCACCCA [CACACA_site9117]” and “ATTAATAATATTCCTTGTACATGATTTTTCTAAATA [XGTACX_site7099]” are within error of each other in “gcPBM binding intensity (ln)” value: 11.4 ± 0.73 for the first, 10.9 ± 0.4 for the second.

“TATAAATATAAATACACACACACATCAATACAGATA [CACACA_site5850]” was tested, and the “gcPBM binding intensity (ln)” value was 10.2 ± 0.2.
